# From publication PMC4336329 (PLoS ONE, 2015)
# Among all 310,000 compounds or so, about 2,200 (0.71%) showed an effect of 50% or more. Effects have a minus sign here. This is one part of the list.
# Target: human ether-à-go-go-related gene (hERG) potassium channel (human, UniProt Q12809)
# Assay: primary screen, population patch clamp on CHO cells stably expressing hERG
# human ether-à-go-go-related gene (hERG) potassium channel, sequence (Q12809 whole entry, looked up): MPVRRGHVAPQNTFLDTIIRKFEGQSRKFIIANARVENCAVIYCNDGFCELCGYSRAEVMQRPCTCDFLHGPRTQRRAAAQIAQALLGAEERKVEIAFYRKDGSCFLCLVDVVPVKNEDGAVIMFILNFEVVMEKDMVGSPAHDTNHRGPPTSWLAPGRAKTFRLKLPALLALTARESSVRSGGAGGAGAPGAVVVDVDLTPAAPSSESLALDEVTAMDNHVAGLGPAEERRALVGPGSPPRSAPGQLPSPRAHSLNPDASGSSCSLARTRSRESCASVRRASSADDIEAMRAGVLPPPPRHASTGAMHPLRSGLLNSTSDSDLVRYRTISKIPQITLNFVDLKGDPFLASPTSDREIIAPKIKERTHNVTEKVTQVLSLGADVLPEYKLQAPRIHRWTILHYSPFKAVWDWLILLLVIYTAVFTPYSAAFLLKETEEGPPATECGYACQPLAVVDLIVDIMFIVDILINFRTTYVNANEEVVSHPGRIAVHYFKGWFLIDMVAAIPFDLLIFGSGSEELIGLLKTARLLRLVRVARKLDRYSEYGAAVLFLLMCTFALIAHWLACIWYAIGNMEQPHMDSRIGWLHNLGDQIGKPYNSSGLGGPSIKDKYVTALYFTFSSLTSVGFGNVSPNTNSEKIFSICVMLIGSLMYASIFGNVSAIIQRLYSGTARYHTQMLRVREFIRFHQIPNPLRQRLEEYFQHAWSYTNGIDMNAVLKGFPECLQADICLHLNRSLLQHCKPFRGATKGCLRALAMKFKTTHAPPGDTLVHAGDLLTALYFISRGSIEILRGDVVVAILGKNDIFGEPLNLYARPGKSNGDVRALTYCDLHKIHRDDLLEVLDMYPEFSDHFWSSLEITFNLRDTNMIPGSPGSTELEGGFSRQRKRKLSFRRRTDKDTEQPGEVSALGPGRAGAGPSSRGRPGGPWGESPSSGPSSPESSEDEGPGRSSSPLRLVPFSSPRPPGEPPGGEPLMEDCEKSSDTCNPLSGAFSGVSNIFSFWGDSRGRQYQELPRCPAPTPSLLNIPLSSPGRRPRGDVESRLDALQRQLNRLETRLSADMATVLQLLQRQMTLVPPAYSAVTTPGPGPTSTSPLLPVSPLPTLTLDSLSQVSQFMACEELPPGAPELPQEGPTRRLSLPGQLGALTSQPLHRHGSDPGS
row,SMILES,"hERG current change (%, negative = inhibition) at 1uM [%]"
1,CCN(CC(=O)NC1CCS(=O)(=O)C1)S(=O)(=O)c1ccc(C)c(C)c1 (stereo not drawn),7.39
2,CC[N+]1(CC)CC2=Cc3c(ccc4ccccc34)CC2C1.[Br-] (stereo not drawn),3.14
3,CCOc1ccc(NC(=O)N2CCC(n3c(=O)[nH]c4ccccc43)CC2)cc1,-1.3
4,O=C(CSc1nnc(CN2CCCCCC2=O)n1-c1ccccn1)NCC(F)(F)F,3.46
5,COc1ccc(CNc2nc3nc(C)c(Cl)c(C)n3n2)cc1OC,11.1
6,COc1ccc(S(=O)(=O)N2CCC(C(=O)NCc3ccncc3)CC2)cc1Cl,8.61
7,COc1ccc(NC(=O)C(C)N2C(=O)c3ccccc3S2(=O)=O)c(OC)c1 (stereo not drawn),6.98
8,Cl.Clc1ccc(OCCCN2CCc3ccccc3C2)c(Br)c1,12.2
9,OC1CSc2nc3ccccc3n2C1 (stereo not drawn),26.7
10,O=C(NCc1ccncc1)c1cncc(Br)c1,3.3
11,O=c1c(-c2ccc([N+](=O)[O-])cc2)coc2c(O)c(O)ccc12,8.94
12,COc1ccc(OC)c(NC(=O)CC2(CC(=O)O)CCCC2)c1,5.96
13,COc1ccc(CNC(=O)C2CCN(S(=O)(=O)N3CCCC3)CC2)cc1,17.7
14,CCOC(=O)N1CCC(NS(=O)(=O)c2cc3c(cc2C)NC(=O)CO3)CC1,6.3
15,CCOCCCn1c(=NC(=O)c2cccs2)c(C#N)cc2c(=O)n3cccc(C)c3nc21,-53.9
16,Cc1csc(=O)n1CCC(=O)OCC(=O)Nc1ccc(S(N)(=O)=O)cc1,15.4
17,O=C(NCCN1CCN(C(=O)c2ccc(Br)cc2)CC1)c1ccc(Br)cc1,-63.5
18,O=C(NCc1cccnc1)/C(=C\c1ccc(-c2cccc(Cl)c2)o1)S(=O)(=O)c1ccccc1,5.61
19,CC1(C)CNC(=O)C=C(c2ccccc2)C1,13.8
20,COc1cc2ccccc2nn1,12.7
21,CCS(=O)(=O)N1Cc2ccccc2CC1C(=O)Nc1cc(S(C)(=O)=O)ccc1Cl (stereo not drawn),2.22
22,O=C(CN1C(=O)c2ccccc2C1=O)NCC(=O)OCC(=O)c1ccc(Br)cc1,7.31

row,SMILES,"hERG current change (%, negative = inhibition) at 1uM [%]"
1,CC(=O)N1c2ccc(C)cc2C(c2ccccc2)CC1C (stereo not drawn),-0.117
2,Cc1ccccc1CSc1nnc(CCCCCNC(=O)OC(C)(C)C)o1,10.8
3,Cc1nnc(NC(=O)CSc2nnc(NC(=O)C(C)(C)C)s2)s1,19.4
4,O=C(COC(=O)CCC(=O)c1cccs1)NC1CC1,11.5
5,CC1=NN(c2ccccc2)C(=O)/C1=C\c1ccc(Oc2ccc([N+](=O)[O-])cc2[N+](=O)[O-])cc1,14.7
6,CCOC(=O)c1ccc2nc(C(F)(F)F)[nH]c(=O)c2c1,5.59
7,O=C(O)c1cccc(Nc2ccncc2[N+](=O)[O-])c1,12.3
8,O=C(COC(=O)C(O)C(O)C(=O)OCC(=O)c1ccc(C(F)(F)F)cc1)c1ccc(C(F)(F)F)cc1 (stereo not drawn),12.3
9,Cc1ccc(-c2cc(C(=O)NCc3ccccn3)c3ccccc3n2)cc1C,0.464
10,O=C(Nc1ccccc1C(=O)O)c1ccc(Br)o1,14.5
11,CC(=O)N(NC(=O)c1ccc(C)cc1)C1CC(=O)N(c2ccccc2Cl)C1=O (stereo not drawn),0.67
12,Cc1ccc(S(=O)(=O)CCC(=O)Nc2ccc(S(=O)(=O)N(C)C)cc2)cc1,9.29
13,Cc1cc(=O)n(-c2ccc3ccccc3n2)[nH]1,-1.93
14,OCCC1CN(CCCn2cccn2)CCN1Cc1ccccc1 (stereo not drawn),8.59
15,N#C/C(=C1\CCCN1)c1nc2ccccc2c(=O)[nH]1,19.9
16,Nc1cc(=O)[nH]c(SCC(=O)Nc2ccc(Oc3ccccc3)cc2)n1,5.61
17,CCn1c(CNC(=O)COc2ccc(C(C)C)cc2)nnc1SCC(=O)NC1CCCCC1C (stereo not drawn),-10.6
18,CCN(CC)c1nc2ccccc2n(Cc2cccc(OC)c2)c1=O,8.21
19,C/C(CCN1CCc2nc(-c3ccccc3)c(-c3ccccc3)cc2C1)=N\O[C@@H](C)c1cn([C@H](CO)Cc2ccccc2)nn1,-1.81
20,CC1CCN(c2cc(N3CCC(C)CC3)c([N+](=O)[O-])cc2/C=C(\C#N)c2nn(-c3ccccc3)c(N)c2C#N)CC1,-14.1
21,O=C(NNS(=O)(=O)c1cc(Cl)cc(Cl)c1)c1sccc1-n1cccc1,8.59
22,Cc1c(C(=O)Nc2nc3ccccc3[nH]2)cccc1[N+](=O)[O-],2.8

row,SMILES,"hERG current change (%, negative = inhibition) at 1uM [%]"
1,Cn1cnnc1SCC(=O)N1CCc2ccccc21,13.1
2,COc1ccc(NC(=O)CCNC(=O)Cn2cnc3ccccc3c2=O)cc1OC,25.6
3,Cc1ccc(S(=O)(=O)c2c(N)n(CCCO)c3nc4ccccc4nc23)cc1,3.28
4,COc1ccc(-c2noc(CCC(=O)NCC3CCCO3)n2)cc1 (stereo not drawn),12.5
5,CC(C)CCNC(=O)C12CN(Cc3ccccc3)CC1C(c1cccc([N+](=O)[O-])c1)=NO2 (stereo not drawn),9.69
6,N#Cc1ccc(CSc2nnc(NC(=O)CN3C(=O)C4CC=CCC4C3=O)s2)cc1 (stereo not drawn),5.94
7,CCOc1ccccc1N1CCN(Cc2ccc(OC)c(OC)c2)CC1,-46
8,CC(=O)c1ccc(-n2c(SCC(=O)c3c[nH]c4ccccc34)nc3ccccc3c2=O)cc1,13.6
9,CC(=O)Oc1ccccc1C(=O)Oc1ccccc1C(=O)O,11.5
10,Cc1onc(-c2ccccc2)c1C(=O)N1CC(C)OC(C)C1 (stereo not drawn),13.1
11,CCc1ccccc1C1C(=O)c2ccccc2C1=O,20.9
12,C=CCC1(CN2CCCC2=O)C(=O)NC(=O)NC1=O,11.4
13,CCN(CC)C(=O)C(C)N(C#N)c1nc(NC(C)C)nc(NC(C)C)n1 (stereo not drawn),-0.178
14,COC(=O)c1c(C)[nH]c(C(=O)C(C)Sc2nnc(-c3cc(OC)c(OC)c(OC)c3)o2)c1C (stereo not drawn),7.99
15,O=C(Nc1ccc2c(c1)OCO2)c1cnn2c(C(F)(F)F)cc(-c3ccco3)nc12,6.26
16,CCc1cc2c(=O)n(Cc3ccco3)c(SCC(=O)N(C)C3CCS(=O)(=O)C3)nc2s1 (stereo not drawn),-85.4
17,CC1CN(c2ccc(NC(=O)c3ccco3)cc2C(=O)O)CC(C)O1 (stereo not drawn),8.66
18,COc1cccc(-n2c(Cc3cc(=O)[nH]c(=O)[nH]3)nnc2SCC(=O)Nc2ccccc2)c1,6.12
19,COCCNC(=O)CN1C(=O)/C(=C/c2ccccc2)Oc2ccc(C(C)(C)C)cc21,14.8
20,Cc1ccc(NS(=O)(=O)c2cc(C(=O)O)ccc2Cl)cc1,9.3
21,COc1cc(/C=N/NC(=O)Cn2cnc3c2c(=O)n(C)c(=O)n3C)cc(OC)c1OC,6.9
22,Cc1ccc(SC(=O)COc2ccc(C)c(C)c2)cc1,10.5

row,SMILES,"hERG current change (%, negative = inhibition) at 1uM [%]"
1,CCOC(=O)c1c(NC(=O)CCl)sc(C(=O)N(CC)CC)c1C,8
2,CSc1cccc(NC(=O)N2CCc3ccc(NC(=O)c4ccccn4)cc3C2)c1,9.3
3,COc1cc2c(cc1NC(=O)COCC(=O)O)oc1ccccc12,13.4
4,O=S(=O)(c1ccccc1)N1CCCc2ccccc21,15
5,CC(=O)c1cccc(NC(=O)N2CCCC2C(=O)NCc2ccccc2)c1 (stereo not drawn),15.2
6,Cc1ccc(CNC(=O)CN(C)S(=O)(=O)c2cnc[nH]2)cc1,4.59
7,Cc1nc(SCC(=O)c2ccc(F)c(F)c2)[nH]c(=O)c1Oc1ccc(Cl)cc1,6
8,Cc1ccc(NC(=O)CSc2nnnn2-c2cccnc2)c(C)c1,14.9
9,O=C(CN1CCN(S(=O)(=O)N2CCOCC2)CC1)Nc1ccc(Cl)c(Cl)c1,-17.5
10,CCCCn1nnc(NC(=S)NC(=O)c2ccc(-c3cccc(Cl)c3Cl)o2)n1,11.7
11,CCn1c(SCC(=O)Nc2nc(C)cs2)nnc1C(NC(=O)c1ccccc1Cl)C(C)C (stereo not drawn),3.19
12,O=C(CN1C(=O)NC(c2ccccc2)(c2ccccc2)C1=O)N1CCOCC1,7.69
13,O=c1[nH]cnc2c1sc1nc3c(c(-c4ccc(Cl)cc4)c12)CCC3,4.44
14,COc1ccc(C(=O)CCC(=O)NCCc2ccccc2F)cc1,11.9
15,CN(C(=S)NC(=O)c1ccc(Cl)cc1)C1CCCCC1,17.4
16,CC1SC(C)C(=O)N(CC(=O)NCc2ccc(F)cc2)C1=O (stereo not drawn),11.1
17,Cc1ccc(NC(=S)N/N=C2/CCCCc3ccccc32)cc1,9.05
18,CCN(CC)CCOC(c1ccccc1)c1ccc(C)cc1.Cl (stereo not drawn),-48.8
19,Nc1n[nH]c(-c2ccccc2[N+](=O)[O-])n1,12.3
20,COc1cc(O)c(C(CCN2CCCCC2)c2ccc(N(C)C)cc2)c(OC)c1 (stereo not drawn),10.3
21,O=C(NCCc1ccccc1)C(NS(=O)(=O)c1cccc2nsnc12)c1ccccc1 (stereo not drawn),3.48
